Test results from the supplement of paper PMC4967469.

Legend:
Assay in all cases: Viability of human cancer cell lines after 72 h of drug (GDSC screen)
[1] = compound: C/C=C(/C)C(=O)O[C@H]1C(C)=C2[C@H]([C@@H]1OC(=O)CCCCCCC)[C@@](C)(OC(C)=O)C[C@H](OC(=O)CCC)[C@@]1(O)[C@H]2OC(=O)[C@@]1(C)O [Thapsigargin]; details: top dose 0.512 µM; top dose inferred
Description: (§1)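 Human cancer cell lines in 384-well plates, medium with 10% serum, drug for 72 h over a 256-fold dose range (nine 2-fold or five 4-fold steps up to the top dose). Adherent lines were fixed and stained with the nucleic acid dye Syto60, suspension lines read with resazurin; signal relative to control wells, capped at 0 and 100%. One two-parameter sigmoid per drug and line, fitted in a mixed model over all curves with the slope shared within a line.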

[2] = compound: C=CC(=O)Nc1cc(-n2c(=O)ccc3cnc4ccc(-c5cn[nH]c5)cc4c32)ccc1C [QL-X-138]; details: top dose 10.24 µM; top dose inferred
Description: as §1

[3] = compound: CCn1c(-c2nonc2N)nc2cnc(Oc3cccc(NC(=O)c4ccc(OCCN5CCOCC5)cc4)c3)cc21 [GSK269962A]; details: top dose inferred
Description: as §1

[4] = compound: COc1cc(N2CCC(O)CC2)ccc1Nc1cc(Nc2ccccc2S(=O)(=O)C(C)C)c2cc[nH]c2n1 [MPS-1-IN-1]; details: top dose 20 µM; top dose inferred
Description: as §1

[5] = compound: COc1cc(O)c2c(c1)/C=C/C[C@H](O)[C@H](O)C(=O)/C=C\C[C@H](C)OC2=O [(5Z)-7-Oxozeaenol]; details: top dose 10 µM; top dose inferred
Description: as §1

[6] = compound: COc1cc2ncnc(-n3nc(-c4ccccn4)nc3N)c2cc1OC [CP466722]; details: top dose 16 µM; top dose inferred
Description: as §1

[7] = compound: COc1nc(C)cnc1NS(=O)(=O)c1cccnc1-c1ccc(-c2nnco2)cc1 [Zibotentan]; details: top dose 20 µM; top dose inferred
Description: as §1

[8] = compound: C[C@]1(c2nc3c(C(N)=O)cccc3[nH]2)CCCN1 [ABT-888]; details: top dose 5 µM; top dose inferred
Description: as §1

[9] = compound: Cc1ccc(-c2c(C(=O)CCl)n(CCCO)c3ncnc(N)c23)cc1 [CMK]; details: top dose 4 µM; top dose inferred
Description: as §1

[10] = compound: Cc1ccc(F)c(NC(=O)Nc2ccc(-c3cccc4[nH]nc(N)c34)cc2)c1 [ABT-869]; details: top dose 1.024 µM; top dose inferred
Description: as §1

[11] = compound: Cc1cnc(-c2cnc(NCCNc3ccc(C#N)cn3)nc2-c2ccc(Cl)cc2Cl)[nH]1 [CHIR-99021]
Description: as §1

[12] = compound: Nc1ccn([C@@H]2O[C@H](CO)[C@@H](O)[C@@H]2O)c(=O)n1 [Cytarabine]; details: top dose 2 µM
Description: as §1

[13] = compound: O=c1cc(-c2cccc3c2Sc2ccccc2S3)oc(N2CCOCC2)c1 [KU-55933]; details: top dose 10 µM
Description: as §1

[14] = top dose 2.5 µM, screen: GDSC drug entry 127
[15] = top dose 5 µM, screen: GDSC drug entry 1192
[16] = top dose 2.56 µM, screen: GDSC drug entry 154
[17] = top dose 10 µM, screen: GDSC drug entry 1241, top dose inferred

Cell Line: DND-41 (T-cell leukaemia, suspension)
- AUC [1]: 0.261
- pIC50 [1]: 8.13
- AUC [2]: 0.477
- pIC50 [2]: 6.25
- AUC [3, 14]: 0.97
- pIC50 [3, 14]: < 5.60
- AUC [3, 15]: 0.864
- pIC50 [3, 15]: 5.45
- AUC [4]: 0.842
- pIC50 [4]: 4.93
- AUC [5]: 0.585
- pIC50 [5]: 5.99
- AUC [6]: 0.664
- pIC50 [6]: 5.57
- AUC [7]: 0.98
- pIC50 [7]: < 4.70
- AUC [8]: 0.989
- pIC50 [8]: < 5.30
- AUC [9]: 0.831
- pIC50 [9]: 5.67
- AUC [10]: 0.984
- pIC50 [10]: < 5.99
- AUC [11, 16]: 0.98
- pIC50 [11, 16]: < 5.59
- AUC [11, 17]: 0.923
- pIC50 [11, 17]: < 5.00
- AUC [12]: 0.835
- pIC50 [12]: 5.96
- AUC [13]: 0.949
- pIC50 [13]: < 5.00

Cell Line: DSH1 (bladder, adherent)
- AUC [1]: 0.324
- pIC50 [1]: 7.97
- AUC [2]: 0.873
- pIC50 [2]: 5.04
- AUC [3, 14]: 0.883
- pIC50 [3, 14]: 5.61
- AUC [3, 15]: 0.903
- pIC50 [3, 15]: < 5.30
- AUC [4]: 0.975
- pIC50 [4]: < 4.70
- AUC [5]: 0.925
- pIC50 [5]: < 5.00
- AUC [6]: 0.859
- pIC50 [6]: 4.91
- AUC [7]: 0.989
- pIC50 [7]: < 4.70
- AUC [8]: 0.988
- pIC50 [8]: < 5.30
- AUC [9]: 0.983
- pIC50 [9]: < 5.40
- AUC [10]: 0.982
- pIC50 [10]: < 5.99
- AUC [11, 16]: 0.947
- pIC50 [11, 16]: < 5.59
- AUC [11, 17]: 0.988
- pIC50 [11, 17]: < 5.00
- AUC [12]: 0.91
- pIC50 [12]: < 5.70
- AUC [13]: 0.988
- pIC50 [13]: < 5.00

Cell Line: EB-3 (Burkitt lymphoma, suspension)
- AUC [1]: 0.464
- pIC50 [1]: 7.60
- AUC [2]: 0.38
- pIC50 [2]: 6.55
- AUC [3, 14]: 0.98
- pIC50 [3, 14]: < 5.60
- AUC [3, 15]: 0.838
- pIC50 [3, 15]: 5.38
- AUC [4]: 0.84
- pIC50 [4]: 4.76
- AUC [5]: 0.799
- pIC50 [5]: 5.24
- AUC [6]: 0.695
- pIC50 [6]: 5.41
- AUC [7]: 0.949
- pIC50 [7]: < 4.70
- AUC [8]: 0.983
- pIC50 [8]: < 5.30
- AUC [9]: 0.792
- pIC50 [9]: 5.67
- AUC [10]: 0.98
- pIC50 [10]: < 5.99
- AUC [11, 16]: 0.984
- pIC50 [11, 16]: < 5.59
- AUC [11, 17]: 0.926
- pIC50 [11, 17]: < 5.00
- AUC [12]: 0.98
- pIC50 [12]: < 5.70
- AUC [13]: 0.984
- pIC50 [13]: < 5.00

Cell Line: EC-GI-10 (oesophagus, adherent)
- AUC [1]: 0.788
- pIC50 [1]: 6.65
- AUC [2]: 0.989
- pIC50 [2]: < 4.99
- AUC [3, 14]: 0.974
- pIC50 [3, 14]: < 5.60
- AUC [3, 15]: 0.926
- pIC50 [3, 15]: < 5.30
- AUC [4]: 0.967
- pIC50 [4]: < 4.70
- AUC [5]: 0.71
- pIC50 [5]: 5.61
- AUC [6]: 0.989
- pIC50 [6]: < 4.80
- AUC [7]: 0.988
- pIC50 [7]: < 4.70
- AUC [8]: 0.989
- pIC50 [8]: < 5.30
- AUC [9]: 0.986
- pIC50 [9]: < 5.40
- AUC [10]: 0.989
- pIC50 [10]: < 5.99
- AUC [11, 16]: 0.989
- pIC50 [11, 16]: < 5.59
- AUC [11, 17]: 0.986
- pIC50 [11, 17]: < 5.00
- AUC [12]: 0.723
- pIC50 [12]: 6.27
- AUC [13]: 0.974
- pIC50 [13]: < 5.00

Cell Line: EJM (lymphoid neoplasm, semi-adherent)
- AUC [1]: 0.185
- pIC50 [1]: 8.34
- AUC [2]: 0.536
- pIC50 [2]: 6.10
- AUC [3, 14]: 0.985
- pIC50 [3, 14]: < 5.60
- AUC [3, 15]: 0.962
- pIC50 [3, 15]: < 5.30
- AUC [4]: 0.859
- pIC50 [4]: 4.90
- AUC [5]: 0.822
- pIC50 [5]: 5.33
- AUC [6]: 0.723
- pIC50 [6]: 5.42
- AUC [7]: 0.984
- pIC50 [7]: < 4.70
- AUC [8]: 0.992
- pIC50 [8]: < 5.30
- AUC [9]: 0.992
- pIC50 [9]: < 5.40
- AUC [10]: 0.992
- pIC50 [10]: < 5.99
- AUC [11, 16]: 0.992
- pIC50 [11, 16]: < 5.59
- AUC [11, 17]: 0.982
- pIC50 [11, 17]: < 5.00
- AUC [12]: 0.975
- pIC50 [12]: < 5.70
- AUC [13]: 0.973
- pIC50 [13]: < 5.00

pIC50: −log10 of the molar value. By IC50 is meant the dose at which the fit gives 50% viability; fits outside the tested doses are given as limits. AUC, from the same fit, is the share of area under the viability curve across the 256-fold dose range; it is 1 without any effect and falls as sensitivity rises. For part of these data: The top dose, if marked as inferred, comes from the curve model; the source does not state it. For part of these data: An entry number marks a drug with two screens in the source, which often give different values.
